Structures can show the parent of a compound that is named as a salt. ± gives the standard deviation of the averaged measurements. Over roughly 2,000 compounds, “cell viability relative to DMSO control (compound alone)” has its median near 0.98; the lowest 2% begin near 0.23. Some of the results follow.

The subject of the assay is PDC-DUC18828. The assay can be described thus: cell viability relative to DMSO control (compound alone) (fraction); PDC-DUC18828 is a patient-derived cholangiocarcinoma cell line; higher = less growth inhibition. The following applies: 1 µM; 72 h. As for the experimental part:
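Selleck Bioactive library screen in the patient-derived FGFR2-G3BP2 fusion-positive ICC cell line PDC-DUC18828 (500 cells/well). Each compound was tested at 1 uM alone, in triplicate, for 72 h. Viability was read by CellTiter-Glo and normalised to plate DMSO controls.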
Turning to `Cc1cccc(Nc2cc(Cl)nc(SCC(=O)O)n2)c1C`, the cell viability turned out to be 1.05 ± 0.021.
Under `Cc1cn([C@@H]2C[C@@H](O)[C@H](CO)O2)c(=O)[nH]c1=O` [Telbivudine] stands 0.98 ± 0.026; under `CCc1cc(C(N)=S)ccn1` [Ethionamide], 1 ± 0.035.
`Cn1cc(C2=C(c3ccc(Cl)cc3Cl)C(=O)NC2=O)c2ccccc21` came in with a cell viability of 1.11 ± 0.038.
As for `OCc1ccc(O[C@@H]2O[C@H](CO)[C@@H](O)[C@H](O)[C@H]2O)cc1` [Gastrodin], the figure is 1.01 ± 0.062; as for `O=C(NC(NC(=S)Nc1ccc(F)c([N+](=O)[O-])c1)C(Cl)(Cl)Cl)C(c1ccccc1)c1ccccc1` (stereo not drawn), 0.938 ± 0.037.
Under `C[C@H]1[C@H](NC(=O)/C(=N\OC(C)(C)C(=O)O)c2csc(N)n2)C(=O)N1S(=O)(=O)O` [Aztreonam] stands 0.987 ± 0.045; under `COC(=O)c1ccc2c(c1)[nH]c1ncnc(NCCCN3CCCCC3)c12`, 0.9436 ± 0.0057; under `OC[C@H]1O[C@@H](OCCc2ccc(O)cc2)[C@H](O)[C@@H](O)[C@@H]1O` [Salidroside], 0.983 ± 0.047.
Under `CCc1c2c(nc3ccc(OC(=O)N4CCC(N5CCCCC5)CC4)cc13)-c1cc3c(c(=O)n1C2)COC(=O)[C@]3(O)CC` [Irinotecan HCl Trihydrate] stands 0.501 ± 0.014.
`CCc1c2c(nc3ccc(OC(=O)N4CCC(N5CCCCC5)CC4)cc13)-c1cc3c(c(=O)n1C2)COC(=O)[C@]3(O)CC` [Irinotecan] displayed a cell viability of 0.306 ± 0.011.
Under `C=C1/C(=C\C=C2/CCC[C@]3(C)[C@@H]([C@H](C)CCCC(C)(C)O)CC[C@@H]23)C[C@@H](O)C[C@@H]1O` [Calcitriol] stands 0.968 ± 0.039.
`CCC[C@H](NC(=O)/C(C#N)=C/c1cccc(Br)n1)c1ccccc1` [Degrasyn (WP1130)] showed a cell viability of 0.892 ± 0.032.
As for `CCOC(=O)NCCCC(=O)NCCc1ccccc1`, the cell viability was 1.03 ± 0.067.
As for `CNC(=O)c1nn(C)c2c1C(C)(C)Cc1cnc(Nc3ccc(N4CCN(C)CC4)cc3)nc1-2`, the figure is 0.638 ± 0.048; as for `CC(C)(O)CC[C@@H](O)[C@](C)(O)[C@H]1CC[C@@]2(O)C3=CC(=O)[C@@H]4C[C@@H](O)[C@@H](O)C[C@]4(C)[C@H]3CC[C@]12C` [20-Hydroxyecdysone], 0.93 ± 0.036; as for `COc1cc2nc(N3CCN(C(=O)C4CCCO4)CC3)nc(N)c2cc1OC` (stereo not drawn) [Terazosin HCl], 1.1 ± 0.034.
`CN1CCN(c2cccc(Nc3nc4c(-c5ccc(S(C)(=O)=O)cc5)cccn4n3)c2)CC1`: the cell viability was found to be 0.996 ± 0.05.
`CN[C@@H](C)C(=O)N[C@H](C(=O)N1CCC[C@H]1C(=O)Nc1snnc1-c1ccccc1)C1CCCCC1` had a cell viability of 0.924 ± 0.035.
As for `CNS(=O)(=O)Nc1nccc(Cc2c(C)c3ccc(Oc4ncccn4)cc3oc2=O)c1F`, the figure is 0.849 ± 0.053.
As for `OC[C@@H](O)[C@@H](O)[C@H](O)[C@@H](O)CO` [Sorbitol], the figure is 0.931 ± 0.049; as for `CC(C)(C)c1cc(C(=O)C(C#N)=NNc2cccc(Cl)c2)no1`, 0.983 ± 0.034; as for `CC(=O)OCC(=O)[C@@]1(O)CC[C@H]2[C@@H]3CCC4=CC(=O)CC[C@]4(C)[C@H]3C(=O)C[C@@]21C` [Cortisone acetate], 0.906 ± 0.024.
`FC(F)(F)c1ccc(/C=C/c2nc(COc3ccc(CCCCn4ccnn4)cc3)co2)cc1` [Mubritinib (TAK 165)] yielded a cell viability of 0.929 ± 0.045.
As for `CN(C)CCCOc1nn(Cc2ccccc2)c2ccccc12` [Benzydamine HCl], the figure is 1.08 ± 0.029; as for `O=C1c2c(O)cc(O)cc2OC(c2ccc(O)c(O)c2)C1O` (stereo not drawn) [Taxifolin (Dihydroquercetin)], 1.01 ± 0.036; as for `C[C@@H]1C(=O)O[C@H]2C[C@@]34[C@H]5C[C@@H](C(C)(C)C)[C@]36[C@@H](OC(=O)[C@@H]6O)O[C@@]4(C(=O)O5)[C@]21O` [Ginkgolide A], 1.04 ± 0.017.
As for `CC1=C(C(=O)OC2CCCCC2)C(c2ccc([N+](=O)[O-])cc2)C2=C(CC(C)(C)CC2=O)N1` (stereo not drawn), the cell viability is 0.943 ± 0.047.
As for `O=C(O)C(Cc1ccccc1[N+](=O)[O-])=NNc1nc(-c2ccc(Cl)c(Cl)c2)cs1` (mixture of isomers), the figure is 0.919 ± 0.028; as for `CC(c1cc2ccccc2s1)N(O)C(N)=O` (stereo not drawn) [Zileuton], 1.08 ± 0.04.
As for `NC(=O)c1ncn([C@@H]2O[C@H](CO)[C@@H](O)[C@H]2O)c1N` [Acadesine], the figure is 0.983 ± 0.044; as for `CN(C)CCc1c[nH]c2ccc(C[C@H]3COC(=O)N3)cc12` [Zolmitriptan], 1.06 ± 0.016; as for `CN(C)CCC=C1c2ccccc2C=Cc2ccccc21` [Cyclobenzaprine HCl], 1.01 ± 0.037.
Under `O=C1c2cccc(O)c2C(=O)c2c(O)cc(CO)cc21` [Aloe-emodin] stands 1.06 ± 0.047; under `C[N+]1(C)CCC(=C(c2ccccc2)c2ccccc2)CC1` [Diphemanil Methylsulfate], 1.024 ± 0.0092; under `COc1cc(/C=C/C(=O)O)ccc1O` [Ferulic Acid], 0.986 ± 0.06.
In turn, `NS(=O)(=O)c1cc2c(cc1Cl)NCNS2(=O)=O` [Hydrochlorothiazide] registered a cell viability of 0.929 ± 0.03.
As for `O=C(NC1CCOCC1)c1ccc(-c2cc(-c3c[nH]nc3-c3ccccn3)ccn2)cc1`, the figure is 1.03 ± 0.058.
Take `O=C1C(=O)N(Cc2ccc(Cl)c(Cl)c2)c2ccccc21` [Apoptosis Activator 2]: the cell viability amounted to 0.896 ± 0.019.
Under `C/C(=N\NC(=S)N1CCC1)c1ccccn1` stands 0.316 ± 0.018; under `O=c1[nH]c(=O)n([C@H]2C[C@H](O)[C@@H](CO)O2)cc1F` [Floxuridine], 0.985 ± 0.11.
With `COc1cc(C)c(/C=C/C(C)=C/C=C/C(C)=C/C(=O)O)c(C)c1C` [Acitretin], the cell viability is 1.04 ± 0.021.
As for `C[C@@H]1COCCN1c1cc(C2([S@](C)(=N)=O)CC2)nc(-c2cc[nH]c3nccc2-3)n1`, the figure is 0.934 ± 0.037; as for `CC(C)(F)C[C@H](N[C@@H](c1ccc(-c2ccc(S(C)(=O)=O)cc2)cc1)C(F)(F)F)C(=O)NC1(C#N)CC1` [Odanacatib (MK-0822)], 1.02 ± 0.053.
`C#C[C@]1(OC(C)=O)CC[C@H]2[C@@H]3CCC4=C[C@@H](OC(C)=O)CC[C@@H]4[C@H]3CC[C@@]21C` [Ethynodiol diacetate]: the cell viability came to 1.061 ± 0.0097.
Under `Nc1ccc(S(=O)(=O)Nc2ncccn2)cc1` [Sulfadiazine] stands 0.941 ± 0.037; under `CCCC(C)NC(=O)c1ccc(Cl)c(Cl)c1` (stereo not drawn), 1.01 ± 0.03; under `CNC1CCC(N(Cc2cccc(-c3ccncc3)c2)C(=O)c2sc3ccccc3c2Cl)CC1` (stereo not drawn) [Smoothened Agonist (SAG) HCl], 0.961 ± 0.027.
`C=CCc1cc(OC)c(O)c(C(=O)NCCO)c1` [Alibendol] had a cell viability of 1.02 ± 0.037.
Under `CCOc1cn(-c2ccc(F)cc2C)nc1C(=O)Nc1ccc(Oc2ccnc3cc(OC)c(OC)cc23)c(F)c1` stands 0.852 ± 0.06; under `C#C[C@]1(O)CC[C@H]2[C@@H]3CCC4=CC(=O)CC[C@@H]4[C@H]3CC[C@@]21C` [Norethindrone], 1.05 ± 0.042; under `COC(=O)C1=C(C)NC(C)=C(C(=O)OC)C1c1ccccc1[N+](=O)[O-]` [Nifedipine], 1.01 ± 0.024.
As for `NC(=O)c1cccc2[nH]c(-c3ccc(C4CCCN4)cc3F)nc12` (stereo not drawn), the figure is 1.02 ± 0.066; as for `CC(C)NC[C@H](O)COc1ccc(CCOCC2CC2)cc1` [Levobetaxolol HCl], 1.09 ± 0.036.
For `COc1cc2c(cc1O)CC[C@@H]1[C@@H]2CC[C@]2(C)[C@@H](O)CC[C@@H]12` [2-Methoxyestradiol (2-MeOE2)], the cell viability came to 0.504 ± 0.0075.
In turn, `Nc1ccc(O)c(C(=O)O)c1` [Mesalamine] gave a cell viability of 1.02 ± 0.035.
As for `COC(=O)N1CCN(Cc2cccc(NC(=O)Nc3ccc(C)nc3)c2F)CC1`, the figure is 1.01 ± 0.02; as for `O=C(O)CSc1cc(NS(=O)(=O)c2ccc(Br)cc2)c2ccccc2c1O`, 0.916 ± 0.08; as for `N=c1ccn2c(n1)O[C@H]1[C@H](O)[C@@H](CO)O[C@H]12` [Cyclocytidine HCl], 0.586 ± 0.056.
Under `CNC(=O)c1ccc2cc([C@@]3(O)CCn4cncc43)ccc2c1` [TAK-700 (Orteronel)] stands 1.03 ± 0.026; under `CC(=O)Oc1cc(C(F)(F)F)ccc1C(=O)O` [Triflusal], 0.898 ± 0.043.
`Cc1cncc(CN2CCC(=C3c4ccc(Cl)cc4CCc4cccnc43)CC2)c1` [Rupatadine Fumarate] had a cell viability of 0.873 ± 0.033.
In turn, `CS(=O)(=O)c1ccc([C@@H](O)[C@@H](CO)NC(=O)C(Cl)Cl)cc1` [Thiamphenicol] gave a cell viability of 0.967 ± 0.022.
As for `CNC(=O)c1ccccc1Oc1nc(Nc2cc(OC)c(OC)c(OC)c2)ncc1Br`, the figure is 0.901 ± 0.031; as for `O=c1ncn2nc(Sc3ccc(F)cc3F)ccc2c1-c1c(Cl)cccc1Cl`, 0.938 ± 0.011; as for `C[C@]12C=CC(=O)C=C1CC[C@@H]1[C@@H]2[C@@H](O)C[C@@]2(C)[C@H]1CC[C@]2(O)C(=O)CO` [Prednisolone], 0.946 ± 0.014.
In turn, `O=c1[nH]cc(F)c(=O)[nH]1` [Fluorouracil (5-Fluoracil, 5-FU)] registered a cell viability of 0.878 ± 0.018.
As for `C[C@@H](c1ncncc1F)[C@](O)(Cn1cncn1)c1ccc(F)cc1F` [Voriconazole], the figure is 1.05 ± 0.011; as for `O=C(O)Cc1ccccc1Nc1c(Cl)cccc1Cl` [Diclofenac Diethylamine], 1.03 ± 0.043.
Molecule `O=C(O)Cc1ccccc1Nc1c(Cl)cccc1Cl` [Diclofenac Sodium] returned a cell viability of 0.976 ± 0.03.
Under `O=C(O)Cc1ccccc1Nc1c(Cl)cccc1Cl` [Diclofenac Potassium] stands 0.973 ± 0.017; under `Cc1c(NC(=O)c2ccc(C(C)(C)C)cc2)cccc1-c1cn(C)c(=O)c(Nc2ccc(C(=O)N3CCOCC3)cc2)n1`, 0.959 ± 0.015; under `C[C@@H]1CC(=O)NN=C1c1ccc(NN=C(C#N)C#N)cc1` [Levosimendan], 0.899 ± 0.012.
As to `CN(C)CCCNC(=O)c1ccc(-c2cc(O)c3ncccc3c2)cc1`, the cell viability came out at 1.03 ± 0.033.
Under `NC1(c2ccc(-c3nc4ccn5c(=O)[nH]nc5c4cc3-c3ccccc3)cc2)CCC1` stands 0.789 ± 0.022; under `CC[C@@]1(O)C(=O)OCc2c1cc1n(c2=O)Cc2cc3cc(O)ccc3nc2-1` [(S)-10-Hydroxycamptothecin], 0.0902 ± 0.0027.
Under `CC[C@H](C)n1cc(C)c2c(C(=O)NCc3c(C)cc(C)[nH]c3=O)cc(-c3ccc(N4CCNCC4)nc3)cc21` stands 0.969 ± 0.0099; under `Nc1cccc(S(=O)(=O)N2CCCN(S(=O)(=O)c3ccc4c(c3)OCCO4)CC2)c1`, 1.05 ± 0.026.

These data come from the supplement of paper PMC9588766.
